± gives the standard deviation of the averaged measurements. The list shows a part of the results.
Tested on: PfAP2-I AP2 domain 3 (GST-tagged)
Assay: gcPBM binding intensity (ln(normalized median fluorescence intensity)); higher = stronger DNA binding
In short: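 An Agilent 4 × 180k array of primer-extended double-stranded 36-bp intergenic genomic probes, with negative controls, was incubated for 1 h with GST-tagged P. falciparum DNA-binding domains expressed in E. coli. Alexa488 anti-GST antibody detected bound protein, scanned at 488 nm. Binding intensity is the highest Masliner-normalised natural-log median intensity across replicate spots of either probe orientation.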

“AAAAAAAAAATATCATGTACAAATATAATAAAATTT [XGTACX_site3896]” and “TATAGCAAAAAATTTACACACATGTTTTTTCTATAC [CACACA_site325]” are within error of each other in “gcPBM binding intensity (ln)” value: 7.46 ± 0.46 for the first, 8 ± 0.49 for the second.

“GGCATTTTATGAAGTAGTACCATAAATATTAAAGAT [XGTACX_site5287]” and “AAAAAAAATTCCAGTACACACAATAATACTAAAAAT [CACACA_site2801]” are within error of each other in “gcPBM binding intensity (ln)” value: 8.07 ± 0.52 for the first, 7.84 ± 0.39 for the second.

“AAAAATTACAAAAATGCATGTACTATTCATATTTTT [TGCATGCA_site918]” and “ATTATATTAATATATATATATATATATATAATAATA [CACACA_negctrl_site437]” are within error of each other in “gcPBM binding intensity (ln)” value: 7.64 ± 0.62 for the first, 7.83 ± 0.32 for the second.

“TTTTTTTCTCTTTTTATTACAAAAAGGGTTTATATA [TGCATGCA_negctrl_site75]” and “TAATATTATATTATATGTACATAACAAATTATATTT [XGTACX_site4296]” are within error of each other in “gcPBM binding intensity (ln)” value: 7.67 ± 0.28 for the first, 7.96 ± 0.16 for the second.

“ATGAAAAAATTTAAATGTACATTACATATATTTATT [XGTACX_site2524]” and “TCTTTTTTTTTTTTTTTTTCTTCTTCTCAATATAAA [GTGCAC_negctrl_site303]” are within error of each other in “gcPBM binding intensity (ln)” value: 7.62 ± 0.45 for the first, 7.72 ± 0.45 for the second.

First: TATGCACACAATATATGTACTTATATATTTTAAAAA [XGTACX_site5482]
Second: TTTTATAAAAAAACTATAAAAATATATAGTACTTAA [CACACA_negctrl_site440]
The “gcPBM binding intensity (ln)” value of the first is higher: 8.05 ± 0.19 for the first, 7.34 ± 0.45 for the second.

“TAGTGTATGATAATATGTACATACATTTATATAATA [XGTACX_site6330]” and “CATAATATGTGGACTTTACACACTTGTTTTAAAATT [CACACA_site819]” are within error of each other in “gcPBM binding intensity (ln)” value: 7.83 ± 0.28 for the first, 7.78 ± 0.55 for the second.

“AATAATAAAAAATACACACACATATAAATATATTAC [CACACA_site7597]” and “CATATAAAGATATGAACACACAAAAAGAATATTTCC [CACACA_site6811]” are the same in “gcPBM binding intensity (ln)” value: 7.61 ± 0.58 for the first, 7.61 ± 0.76 for the second.

“TTCCGAACGACCTAAAGTACATGTATTTCAACTTTT [XGTACX_site1220]” and “AGGACACATATATGCAAAAAAAAAAAAAAAAAAAAA [TGCATGCA_negctrl_site427]” are within error of each other in “gcPBM binding intensity (ln)” value: 7.5 ± 0.52 for the first, 8.02 ± 0.33 for the second.

“ATAAAAAACAGTGGCACACATTATGTATCCACCTTT [CACACA_site5958]” and “ATGCATATAATTATATGTACATATAAGAAATATATA [XGTACX_site517]” are within error of each other in “gcPBM binding intensity (ln)” value: 8.21 ± 0.61 for the first, 7.83 ± 0.28 for the second.

“CATTTATTATGATAAAGTACTTAAATTAATAGATAA [XGTACX_site3566]” and “TTTTGAAAGTTTTTGTGTCCACATATATTTATATAT [XGTACX_site6563]” are within error of each other in “gcPBM binding intensity (ln)” value: 7.68 ± 0.37 for the first, 8.01 ± 0.18 for the second.

“TTTATTTATTACTAAAGTACTAAATCATATAATTAT [XGTACX_site3654]” and “GTTTAAAGTTGAACAAGTACACATTTATATAAGGCA [XGTACX_site351]” are within error of each other in “gcPBM binding intensity (ln)” value: 7.46 ± 0.47 for the first, 7.99 ± 0.41 for the second.

“TTTAATAAAAAAATTAAAAATAAAGAAAAAAAAAAA [CACACA_negctrl_site1464]” and “AAATATATATAAAACTCACACATTATCTTATAACCA [CACACA_site5268]” are within error of each other in “gcPBM binding intensity (ln)” value: 8.36 ± 0.64 for the first, 7.83 ± 0.23 for the second.

“TTAAATAAATATAAGTGTACATACACACTTTACAAT [XGTACX_site6348]” and “GCATATGTTCAGCGTTGTACATAAAAAAAAACATAT [XGTACX_site5974]” are within error of each other in “gcPBM binding intensity (ln)” value: 7.62 ± 0.26 for the first, 8.13 ± 0.49 for the second.

Compared with “GCGTAATCTATTTGCACACTTATTTGTTCTTAAAAA [CACACA_site672]”, “AAAAAATAATATTGTACACACATAAATTCTTTGTCA [CACACA_site5187]” is lower in “gcPBM binding intensity (ln)” value: 9.915 ± 0.049 for the first, 7.76 ± 0.33 for the second.

“ATGTATGGAAATTTTACACACAAGAGTAGTTTAAAA [CACACA_site1710]” and “TATGTGTATACAATATGTACATATGTTAACTTGTAT [XGTACX_site872]” are within error of each other in “gcPBM binding intensity (ln)” value: 7.61 ± 0.66 for the first, 7.97 ± 0.62 for the second.

Compared with “TGAGATAACAAAAGTTGTACTTTTTTTTTTTTTTTT [XGTACX_site3004]”, “AAATTTAAAATAAGTAGTACATAATATAAATAAATA [XGTACX_site3592]” is lower in “gcPBM binding intensity (ln)” value: 8.73 ± 0.23 for the first, 7.71 ± 0.47 for the second.

Going from “TAATTGAGCAAATGAGTGCACAGCATAAAGTATAGT [GTGCAC_site9497]” to “TATAAAAGAAACTATACACACATATTTTAAATATTT [CACACA_site2753]”, the “gcPBM binding intensity (ln)” value falls from 10.3 ± 0.61 to 7.54 ± 0.7.

Compared with “GTACTTGTATTATGCACACATATAATTAAACATATA [CACACA_site3312]”, “AAATTTATTTCTGTGTGTCCACAAAAAAAAATCTTT [XGTACX_site691]” is lower in “gcPBM binding intensity (ln)” value: 10.1 ± 0.46 for the first, 7.76 ± 0.4 for the second.

Compared with “TAAGCCTTTCTATTATGTACTTATTAAAACATGTAG [XGTACX_site8022]”, “CTTATATTAAAACACACACACGCACAAAACAGAAAT [CACACA_site1462]” is higher in “gcPBM binding intensity (ln)” value: 8.035 ± 0.064 for the first, 8.63 ± 0.42 for the second.

“TTTTTTTTTTTCAATAGTACTTTCCATTTACATATA [XGTACX_site3889]” and “AAAAAAAATAATATTGTACACACATAAATTCTTTGT [CACACA_site8654]” are within error of each other in “gcPBM binding intensity (ln)” value: 7.99 ± 0.57 for the first, 7.66 ± 0.38 for the second.

First: TTTTATAAATACACACGTACGTGTGCATAACGTTTT [XGTACX_site3199]
Second: TACTTTTTAAAAATGTTTTATATAATAAAAAGATAT [CACACA_negctrl_site678]
The “gcPBM binding intensity (ln)” value of the first is higher: 9.465 ± 0.092 for the first, 7.7 ± 0.59 for the second.

“ATTATAAACCAGAATGCATGTAGATGAATCTTTTCT [TGCATGCA_site284]” and “TAAAAATATAAAACATGTACATATATGCATATATTT [XGTACX_site8093]” are within error of each other in “gcPBM binding intensity (ln)” value: 7.63 ± 0.65 for the first, 7.72 ± 0.58 for the second.

First: ATATCATAAGTAGAAACACACAATTAGATTTTTTCC [CACACA_site2353]
Second: AAAATATAATATAATGCACACATAAAAAAAAAATCA [CACACA_site7922]
The “gcPBM binding intensity (ln)” value of the first is lower: 7.28 ± 0.83 for the first, 10.8 ± 0.64 for the second.

Going from “TATCTGTAAATGGACACACACATATATATATATATA [CACACA_site5926]” to “TATATATATAAAAATACACACATGAATGAATATATA [CACACA_site419]”, the “gcPBM binding intensity (ln)” value falls from 9.53 ± 0.75 to 8.29 ± 0.4.

Compared with “TCTTTATTATTCGCCACACACATATATATATATATA [CACACA_site3077]”, “TTTTAAAAAAAATAAAAAATAAACAATAATAAATAA [CACACA_negctrl_site721]” is lower in “gcPBM binding intensity (ln)” value: 9.36 ± 0.071 for the first, 7.42 ± 0.59 for the second.

“GGGGGCTTTTATAAAAGTACAAAATGAATAAAAATT [XGTACX_site2393]” and “TATACTCATAAATACACACACATATATATATATATA [CACACA_site5822]” are within error of each other in “gcPBM binding intensity (ln)” value: 9.22 ± 0.57 for the first, 9.42 ± 0.45 for the second.

First: TATACATACCCACCCACACACAAAAAAAAAAAAAAA [CACACA_site4632]
Second: GGGGACGCGGGTGGGGGTACTCACACTATGCAAAAT [XGTACX_site7745]
The “gcPBM binding intensity (ln)” value of the first is lower: 8.31 ± 0.55 for the first, 9.92 ± 0.085 for the second.
